Screen size: about 370,000 compounds; about 150 (0.041%) were called active. This list was built around the results that the source calls inconclusive (neither active nor inactive); the mix of calls is not that of the screen. Calls follow the shape of the dose curve; as a rule, active = well fitted inhibition curve with a large enough effect; inconclusive = small, poorly fitted or top-dose-only effect; inactive = flat fitted curve, though single readings scatter. No potency is given beside an inconclusive call; the fits are too rough.
target: Beta-lactamase (Escherichia coli (strain K12)) (UniProt P00811); assay: qHTS Inhibitors of AmpC Beta-Lactamase (assay with detergent); settings: AmpC hydrolysis of nitrocefin, absorbance 480 nm, 0.01% Triton; activity change, negative = inhibition: at 114 µM (top of the series); also: nearly all actives have a fitted effect of over 25% in size;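 as to activity change, negative = inhibition: 0% = no-compound wells and -100% = no-enzyme wells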
Method in brief: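 AmpC (5.3 nM in the dispensed reagent) in 20 mM phosphate pH 7.0 with 0.01% (detergent screen) or 0.0001% Triton X-100 was preincubated with compounds for 15 min at room temperature. Nitrocefin was then added from an 800 uM solution, and hydrolysis was followed at 480 nm.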
Potency is read from the fitted curve at half-maximal effect; tags tell the direction and shape of the fitted curve.

Chain of UniProt P00811 (P00811 whole entry, looked up): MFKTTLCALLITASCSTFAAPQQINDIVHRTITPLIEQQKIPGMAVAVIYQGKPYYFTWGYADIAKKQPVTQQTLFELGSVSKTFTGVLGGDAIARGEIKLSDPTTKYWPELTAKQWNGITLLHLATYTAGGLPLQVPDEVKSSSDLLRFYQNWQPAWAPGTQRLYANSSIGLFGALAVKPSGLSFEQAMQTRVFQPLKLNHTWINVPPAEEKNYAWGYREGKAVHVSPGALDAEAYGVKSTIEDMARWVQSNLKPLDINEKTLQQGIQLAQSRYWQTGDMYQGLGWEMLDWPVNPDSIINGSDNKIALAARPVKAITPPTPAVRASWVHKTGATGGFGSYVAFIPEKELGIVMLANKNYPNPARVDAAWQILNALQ

Structure (SMILES) | activity change, negative = inhibition | Potency
Cc1cccc(-c2nsc(SCC(=O)NCC3CCCO3)n2)c1 (stereo not given) | inactive: 0.895% | 
O=C(O)c1ccc(CNCc2ccc(Cl)cc2Cl)cc1 |  | inconclusive [inhibitor, full curve, poor fit]
CC(C(=O)Nc1ccccc1C(F)(F)F)n1nc(-c2ccccc2)c2c(c1=O)CCCC2 (stereo not given) | inactive: 1.34% | 
CCCCOC(=O)Nc1ccc(C(=O)OC)cc1 |  | inconclusive [inhibitor, full curve, poor fit]
Cc1cc(=O)[nH]c(SCC(=O)NCc2ccc3c(c2)OCO3)n1 |  | inconclusive [inhibitor, full curve, poor fit]
CCc1ccc(NC(=S)Nc2ccc3cn[nH]c3c2)cc1 |  | inconclusive [inhibitor, full curve]
Cc1ccc2nc(NC(=O)c3cccs3)sc2c1 |  | inconclusive [inhibitor, partial curve, poor fit]
Cc1ccccc1NC(=O)NCCN1C(=O)C2C3C=CC(C3)C2C1=O (stereo not given) |  | inconclusive [inhibitor, full curve]
C=CCN1CCc2nc(N)sc2CC1 |  | inconclusive [inhibitor, full curve]
COc1ccccc1NC(=O)CN1C(=O)COc2ccc(C)cc21 | inactive: -4.01% | 
Cc1cc(C(=O)OCC(=O)c2ccc(Br)s2)c(C)o1 |  | inconclusive [inhibitor, full curve, poor fit]
O=C(O)c1cccc(Nc2nc(-c3cccnc3)nc3ccccc23)c1 | inactive: -8.92% | 
O=C(C[n+]1cc(-c2ccc(F)cc2)n2c1CCC2)Nc1nc(-c2ccc(F)cc2)cs1 |  | inconclusive [inhibitor, partial curve]
COC(=O)Cn1cnc2c1c(=O)n(C)c(=O)n2C |  | inconclusive [inhibitor, full curve, poor fit]
COC1=C(Nc2ccc(C)cc2)C(=O)c2ccccc2C1=O | inactive: -2.87% | 
COc1ccc(-n2nc(C(N)=O)c(O)cc2=O)cc1 |  | inconclusive [inhibitor, full curve, poor fit]
CCOC(=O)C1(Cc2ccc(OC)cc2)CCN(C(=O)c2sc(C)nc2C)CC1 | inactive: -0.235% | 
CCn1c(COc2ccccc2OC)nnc1SCC#N |  | inconclusive [inhibitor, full curve, poor fit]
CCOC(=O)C1CCN(Cc2cccc(OC)c2)CC1 |  | inconclusive [inhibitor, full curve, poor fit]
Cc1ccc(NC(=O)CN2C(=O)S/C(=C\c3cc(Cl)c(OCC(=O)O)c(Cl)c3)C2=O)cc1 |  | inconclusive [inhibitor, full curve, poor fit]
O=C(CN1CCCCCC1)Nc1cc([N+](=O)[O-])ccc1Cl |  | inconclusive [inhibitor, partial curve]
COc1cccc(C(=O)Nc2cc(C(=O)NCCc3ccccc3)ccc2Cl)c1 | inactive: -2.43% | 
Cc1cccc(C(=O)c2c(N)sc3c2CCCC3)c1 | inactive: -2.38% | 
CNC(=O)COc1ccc(-c2nn(C)c(=O)c3ccccc23)cc1 |  | inconclusive [inhibitor, single point]

Structure (SMILES) | activity change, negative = inhibition | Potency
Cc1csc(SCC(=O)Nc2cc(C(C)(C)C)nn2-c2ccccc2)n1 |  | inconclusive [inhibitor, full curve, poor fit]
COc1ccc(NC(=O)c2ccco2)cc1NC(=O)COc1ccc(C)cc1C | inactive: 3.41% | 
Cc1cccc2[nH]c(CN(C)C(=O)C3CCC(=O)N(CCc4ccccc4)C3)nc12 (stereo not given) |  | inconclusive [inhibitor, full curve, poor fit]
Cc1ccc(C)c(NC(=O)C2CCC(C)(C(=O)O)C2(C)C)c1 (stereo not given) |  | inconclusive [inhibitor, partial curve, poor fit]
COc1ccc2nc(N3CCN(C(=O)c4ccco4)CC3)sc2c1 | inactive: 5.38% | 
CCOC(=O)Cc1ccc(NC(=O)N2CC(CC)Oc3ccccc32)cc1 (stereo not given) | inactive: 19.7% | 
CCN(CC)CCCn1c(SCC(=O)Nc2cccc(F)c2)nnc1-c1ccoc1C |  | inconclusive [inhibitor, partial curve, poor fit]
Cc1cc(OCc2nc3ccccc3s2)ccc1N | inactive: 3.31% | 
Cc1cc(C)cc(NC(=O)CCc2ccc(C)o2)c1 |  | inconclusive [inhibitor, single point]
CC(C)CC(=O)Nc1ccc(-c2cn3ccsc3n2)cc1 | inactive: 1.74% | 
CCOc1ccc(OCCC(=O)N(CC(=O)Nc2ccccc2C(F)(F)F)Cc2ccco2)cc1 |  | inconclusive [inhibitor, single point]
COCCNC(=O)c1ccc2c(=O)n(Cc3ccco3)c(SCC(=O)Nc3ccc(OC)cc3OC)nc2c1 | inactive: -6.79% | 
CCOc1ccccc1NC(=O)C(C)N1C(=O)c2ccccc2S1(=O)=O (stereo not given) |  | inconclusive [inhibitor, full curve]
Cc1ccc(S(=O)(=O)N2CCOCC2)cc1NC(=O)COC(=O)C1=COCCO1 |  | inconclusive [inhibitor, full curve, poor fit]
COC(=O)CCC(=O)NNC(=O)C1CC1(c1ccccc1)c1ccccc1 (stereo not given) |  | inconclusive [inhibitor, full curve, poor fit]
Cc1ccc(-c2csc(Nc3ccccn3)n2)cc1 | inactive: -7.26% | 
Cc1ccc([C@@H]2[C@@H]3C(=O)N(C)C(=O)[C@@H]3[C@]3(C)C(=O)N(Cc4ccc(-c5ccccc5)cc4)CC(=O)N23)o1 | inactive: -8.96% | 
C/C(=N/OCO/N=C(\C)c1ccc(F)cc1F)c1ccc(F)cc1F |  | inconclusive [inhibitor, single point]
CC(Oc1ccc(Cl)cc1Cl)C(=O)N(Cc1ccco1)C1CCS(=O)(=O)C1 (stereo not given) |  | inconclusive [inhibitor, full curve, poor fit]
N#Cc1cccc(C(c2nnnn2C2CCCC2)N2CCC(Cc3ccccc3)CC2)c1 (stereo not given) |  | inconclusive [inhibitor, full curve, poor fit]
CC(C)NC(=O)Cn1cc(C(=O)c2ccccc2)c2ccccc21 |  | inconclusive [inhibitor, full curve, poor fit]
Cc1ccc(C)c(N2CCN(C(=O)C3CCCN(S(=O)(=O)c4c(C)[nH]c(=O)[nH]c4=O)C3)CC2)c1 (stereo not given) |  | inconclusive [inhibitor, full curve]
Cc1cc(C)cc(N2CCn3c2nc2c3c(=O)n(CCc3ccccc3)c(=O)n2C)c1 | inactive: 19.1% | 
Cc1ccc(/C=N/Nc2nc3ccccc3s2)o1 |  | inconclusive [inhibitor, single point]

Structure (SMILES) | activity change, negative = inhibition | Potency
CCOC(=O)c1sc2c(c1C)c(=O)n(CCO)c(=O)n2Cc1ccccc1 | inactive: 0.522% | 
COc1ccc(-c2coc3c(C)c4oc(=O)c(CCC(=O)O)c(C)c4cc23)cc1 | inactive: -0.67% | 
CC1Cc2ccccc2N1C(=O)CCN1C(=O)C2C3C=CC(C3)C2C1=O (stereo not given) |  | inconclusive [inhibitor, full curve]
COCCNC(=O)C1CC(c2ccc(F)cc2)=NO1 (stereo not given) |  | inconclusive [inhibitor, full curve, poor fit]
COc1cccc(N2CCN(Cc3nnc(-c4ccc5c(c4)OCO5)o3)CC2)c1 | inactive: -0.227% | 
Cc1occc1-c1nnc(-c2cc([N+](=O)[O-])cc([N+](=O)[O-])c2)o1 | inactive: 6.93% | 
CCCCC(=O)Nc1cccc2c1C(=O)N(c1ccccc1)C2=O |  | inconclusive [inhibitor, full curve, poor fit]
CC1CC(N(C(=O)c2ccccc2Cl)c2ccccc2)c2ccccc2N1 (stereo not given) |  | inconclusive [inhibitor, partial curve, poor fit]
CCN1CCc2c(C#N)c(N3CCOCC3)nc(NCc3ccccc3)c2C1 |  | inconclusive [inhibitor, single point]
CC1Cc2nc(SCC(=O)c3ccccc3)n(Cc3ccccc3)c(=O)c2S1 (stereo not given) |  | inconclusive [inhibitor, partial curve, poor fit]
CCOC(=O)CNc1c(-c2ccccc2)nc2ccc(Cl)cn12 |  | inconclusive [inhibitor, full curve, poor fit]
Cc1cc(C)cc(NC(=O)CN2C(=O)c3ccccc3C2=O)c1 |  | inconclusive [inhibitor, partial curve, poor fit]
COCCNC(=S)N1CCN(c2ccc(Cl)cc2)CC1 |  | inconclusive [inhibitor, partial curve]
CC1=C(C(=O)OC2CCC(C)CC2)C(c2ccc(O)c([N+](=O)[O-])c2)NC(=O)N1 (stereo not given) |  | inconclusive [inhibitor, partial curve, poor fit]
Cc1ccc(C(=O)N/N=C\c2ccc(-c3ccc([N+](=O)[O-])cc3)o2)cn1 | inactive: -6.13% | 
COc1ccc(Br)cc1CNC(=O)c1ccc2c(c1)nc1n2CCCCC1 | inactive: 3.44% | 
CNC(=O)c1cc2c(=O)n3cc(C)ccc3nc2n(C(C)C)c1=N |  | inconclusive [inhibitor, single point]
Cc1ccc(CC(=O)OCCNC(=O)c2cccnc2)cc1 |  | inconclusive [inhibitor, full curve, poor fit]
C=CCN1CCN(C(=O)CCCc2ccccc2)CC1 |  | inconclusive [inhibitor, partial curve, poor fit]
O=C(O)CC/C(=N/NC(=O)c1ccc(-c2ccccc2)cc1)c1ccccc1 | inactive: -0.353% | 
CON(c1nc(Cl)nc(N(C)C)n1)S(=O)(=O)c1ccccc1Cl | inactive: -10.6% | 
CCOc1ccc(CCNC(=O)COC(=O)c2cc(OC)c(OC)c(OC)c2)cc1OCC |  | inconclusive [inhibitor, partial curve, poor fit]

Source: PubChem BioAssay AID485294 (National Center for Advancing Translational Sciences (NCATS), 2010)
